{"source": "the supplement of paper PMC3334620", "note": "In all, about 33,000 sequences were measured (“E-score (-0.5 to 0.5)”: median about -0.056, highest 2% from about 0.38 on). The list shows a part of the results.", "data": [{"molecular_target": "Stb4 (UniProt P50104)", "experiment": "PBM E-score (8-mer binding enrichment) (E-score (-0.5 to 0.5)); higher = stronger / more preferred TF binding; most listed sequences are background and not binding sites", "conditions": "protein concentration: 200 nM; construct: GST-DNA-binding domain", "how_it_was_run": "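Yeast transcription factors carrying a GST tag, as full-length proteins or DNA-binding domains, were produced by PURExpress in vitro transcription/translation. About 100-200 nM protein was applied to universal all-10-mer Agilent arrays, double-stranded by primer extension on fresh or once-stripped slides. Bound protein was detected with fluorescent anti-GST, and scans were normalised with masliner. The Universal PBM Analysis Suite gave each ungapped eight-base word, pooled with its reverse complement, an E-score, a modified Wilcoxon-Mann-Whitney statistic.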", "values": [{"sequence": "CAGGATAA", "PBM E-score": -0.12}, {"sequence": "AACGGATT", "PBM E-score": 0.155}, {"sequence": "CCGGACCG", "PBM E-score": 0.352}, {"sequence": "TACAAAGA", "PBM E-score": 0.00433}, {"sequence": "ACCGATAG", "PBM E-score": 0.134}, {"sequence": "AGCAATCC", "PBM E-score": 0.0833}, {"sequence": "CCGGCGGA", "PBM E-score": 0.365}, {"sequence": "CATCAGAG", "PBM E-score": -0.205}, {"sequence": "GCTTGAAC", "PBM E-score": -0.0164}, {"sequence": "ACTGGGCG", "PBM E-score": -0.0808}, {"sequence": "ACGGTGCA", "PBM E-score": -0.216}, {"sequence": "CTCGGGAC", "PBM E-score": 0.45}, {"sequence": "TACTGTGA", "PBM E-score": -0.0686}, {"sequence": "GGGACACC", "PBM E-score": 0.139}, {"sequence": "ACGTTGTA", "PBM E-score": -0.179}, {"sequence": "CAAGTGCC", "PBM E-score": -0.145}, {"sequence": "AAGGATGG", "PBM E-score": -0.0659}, {"sequence": "GGGCTGCA", "PBM E-score": -0.092}, {"sequence": "ATCGACCC", "PBM E-score": 0.137}, {"sequence": "GGCTGTAC", "PBM E-score": -0.0835}, {"sequence": "GGTAATGA", "PBM E-score": 0.142}, {"sequence": "CAAATTAG", "PBM E-score": -0.153}, {"sequence": "AAATGTTA", "PBM E-score": 0.0118}, {"sequence": "CGTCCGCC", "PBM E-score": 0.184}, {"sequence": "GATGCGGA", "PBM E-score": 0.23}, {"sequence": "GTCTCTCA", "PBM E-score": -0.0855}, {"sequence": "ATAATACC", "PBM E-score": 0.168}, {"sequence": "CCTGGAAC", "PBM E-score": -0.19}, {"sequence": "CCAGATCA", "PBM E-score": -0.11}, {"sequence": "GGGTGCAC", "PBM E-score": -0.0674}, {"sequence": "AGGTCAAC", "PBM E-score": -0.183}, {"sequence": "ATCGTCGA", "PBM E-score": -0.0764}, {"sequence": "GCTAGAAC", "PBM E-score": -0.109}, {"sequence": "CCTGGCCA", "PBM E-score": -0.225}, {"sequence": "CTCAGCCA", "PBM E-score": -0.159}, {"sequence": "CACACCCG", "PBM E-score": 0.3}, {"sequence": "GCCAAAAC", "PBM E-score": -0.0281}, {"sequence": "TAATAAAA", "PBM E-score": -0.0954}, {"sequence": "CTGATTTC", "PBM E-score": -0.0899}, {"sequence": "CAGGGCCA", "PBM E-score": -0.284}, {"sequence": "AACGCTAT", "PBM E-score": -0.00059}, {"sequence": "ACGATCCT", "PBM E-score": -0.122}, {"sequence": "AAGAGGGC", "PBM E-score": -0.307}, {"sequence": "ACTGTCCC", "PBM E-score": -0.0308}, {"sequence": "TAGTCGCA", "PBM E-score": -0.0285}, {"sequence": "CGAATGCG", "PBM E-score": 0.177}, {"sequence": "AGCTCCAG", "PBM E-score": -0.23}, {"sequence": "CATTTTAA", "PBM E-score": 0.0126}, {"sequence": "CCGCGATA", "PBM E-score": 0.115}, {"sequence": "GCCGGTTA", "PBM E-score": 0.182}, {"sequence": "GCACGAGA", "PBM E-score": -0.0157}, {"sequence": "CACGTGAC", "PBM E-score": -0.103}, {"sequence": "CAATTAGA", "PBM E-score": -0.273}, {"sequence": "GCTTTTGA", "PBM E-score": -0.0138}, {"sequence": "CATCATGG", "PBM E-score": -0.0411}, {"sequence": "CTCTTCAC", "PBM E-score": -0.253}, {"sequence": "CCATCGGC", "PBM E-score": 0.303}, {"sequence": "AATAATCA", "PBM E-score": -0.0307}, {"sequence": "AAGTTATG", "PBM E-score": -0.135}, {"sequence": "ATCTACGA", "PBM E-score": -0.165}, {"sequence": "ACGTGAGT", "PBM E-score": -0.168}, {"sequence": "GAAGTATC", "PBM E-score": 0.0329}, {"sequence": "ACTGGGAA", "PBM E-score": -0.0873}, {"sequence": "CAACCAGG", "PBM E-score": -0.135}, {"sequence": "CCGGTAGA", "PBM E-score": 0.264}, {"sequence": "AATCGCTC", "PBM E-score": -0.14}, {"sequence": "AGAGCACA", "PBM E-score": -0.168}, {"sequence": "TACGACCA", "PBM E-score": -0.207}, {"sequence": "ACCTATAT", "PBM E-score": -0.0149}, {"sequence": "AAGAGCAG", "PBM E-score": -0.211}, {"sequence": "GATCGTCA", "PBM E-score": -0.148}, {"sequence": "GGTTTATA", "PBM E-score": 0.0656}, {"sequence": "ACTCGGAT", "PBM E-score": 0.467}, {"sequence": "TCGCTCCA", "PBM E-score": -0.171}, {"sequence": "GCACAACA", "PBM E-score": -0.19}, {"sequence": "AAGCTATG", "PBM E-score": -0.116}, {"sequence": "GGTCGCTA", "PBM E-score": 0.0304}, {"sequence": "AGGACGCA", "PBM E-score": -0.0219}, {"sequence": "CCCCGCGG", "PBM E-score": 0.166}, {"sequence": "ACCACTGC", "PBM E-score": -0.125}, {"sequence": "AGAGAACT", "PBM E-score": -0.114}, {"sequence": "ACTTGGTG", "PBM E-score": -0.242}, {"sequence": "ACAGCGTG", "PBM E-score": -0.117}, {"sequence": "CCGGTGTC", "PBM E-score": 0.236}, {"sequence": "GACTTCAA", "PBM E-score": -0.185}, {"sequence": "CAAGTCGA", "PBM E-score": -0.18}, {"sequence": "AGCCCGAA", "PBM E-score": 0.264}, {"sequence": "CGCACGAA", "PBM E-score": -0.095}, {"sequence": "CCAAAGAC", "PBM E-score": 0.00579}, {"sequence": "ATAACCAG", "PBM E-score": -0.169}, {"sequence": "ATCGCCAG", "PBM E-score": -0.193}, {"sequence": "AATGAGAT", "PBM E-score": -0.11}, {"sequence": "AAGCGTAG", "PBM E-score": 0.0345}, {"sequence": "TCCTCCGA", "PBM E-score": 0.344}, {"sequence": "ATATCAGA", "PBM E-score": 0.152}, {"sequence": "GTAGATAA", "PBM E-score": 0.135}, {"sequence": "TCGCCGAA", "PBM E-score": 0.32}, {"sequence": "CGTGTTTC", "PBM E-score": 0.142}, {"sequence": "ACACAAGT", "PBM E-score": -0.228}, {"sequence": "TAAGTCCA", "PBM E-score": -0.0323}, {"sequence": "GACGCCCC", "PBM E-score": 0.0188}, {"sequence": "CCAGATGC", "PBM E-score": -0.116}, {"sequence": "ATTCTCTA", "PBM E-score": -0.191}, {"sequence": "GCGGGATA", "PBM E-score": 0.217}, {"sequence": "AGGAGACG", "PBM E-score": -0.167}, {"sequence": "CGCAAGAC", "PBM E-score": -0.135}, {"sequence": "ATACATAA", "PBM E-score": -0.0857}, {"sequence": "GCCATATA", "PBM E-score": -0.0746}, {"sequence": "CCACACAG", "PBM E-score": -0.164}, {"sequence": "GGTAAATA", "PBM E-score": 0.143}, {"sequence": "CTTAAGTA", "PBM E-score": -0.166}, {"sequence": "CCAATTCA", "PBM E-score": -0.215}, {"sequence": "AGTTACCA", "PBM E-score": 0.0897}, {"sequence": "CATGTGCA", "PBM E-score": -0.0803}, {"sequence": "AGCATGGC", "PBM E-score": -0.06}, {"sequence": "ACGGAGGG", "PBM E-score": 0.202}, {"sequence": "CCTGTACA", "PBM E-score": -0.178}, {"sequence": "GCTAGACC", "PBM E-score": -0.0645}, {"sequence": "ATGCAGGA", "PBM E-score": -0.242}, {"sequence": "CATAGAAA", "PBM E-score": 0.04}, {"sequence": "GTTACGTA", "PBM E-score": -0.196}, {"sequence": "CAGGCATG", "PBM E-score": -0.167}, {"sequence": "AACGATGT", "PBM E-score": -0.0358}, {"sequence": "AGCGATCC", "PBM E-score": 0.108}, {"sequence": "GCTCTGGA", "PBM E-score": -0.0616}, {"sequence": "AGCTCCCT", "PBM E-score": -0.271}, {"sequence": "CAGCGACG", "PBM E-score": -0.161}, {"sequence": "AGAATTAC", "PBM E-score": 0.115}, {"sequence": "GAATGTCA", "PBM E-score": -0.0469}, {"sequence": "CTCACACA", "PBM E-score": -0.202}, {"sequence": "CCAGACCA", "PBM E-score": -0.234}, {"sequence": "GCTAGAAA", "PBM E-score": 0.0522}, {"sequence": "CTATGCAC", "PBM E-score": -0.12}, {"sequence": "GACACACC", "PBM E-score": 0.0797}, {"sequence": "TGAGCCAA", "PBM E-score": -0.23}, {"sequence": "CAACTGGA", "PBM E-score": -0.219}, {"sequence": "GATGCGCC", "PBM E-score": -0.0232}, {"sequence": "AAGAATTG", "PBM E-score": -0.0708}, {"sequence": "TAGCCATA", "PBM E-score": -0.215}, {"sequence": "ATGGGAGC", "PBM E-score": 0.00961}, {"sequence": "ACGCTAGC", "PBM E-score": -0.131}, {"sequence": "AGTGCATA", "PBM E-score": -0.141}, {"sequence": "ATCTCCCC", "PBM E-score": 0.055}, {"sequence": "ACAAATTA", "PBM E-score": 0.0895}, {"sequence": "ATGGGTCA", "PBM E-score": -0.235}, {"sequence": "TGACACAA", "PBM E-score": -0.146}, {"sequence": "CCATCCCA", "PBM E-score": -0.0324}, {"sequence": "AATGTGTC", "PBM E-score": -0.0605}, {"sequence": "CCCTTAGA", "PBM E-score": -0.394}, {"sequence": "CGTTCTCA", "PBM E-score": -0.213}, {"sequence": "GGTTCGAC", "PBM E-score": -0.0494}, {"sequence": "CAACCATC", "PBM E-score": 0.0239}, {"sequence": "ACTACGCA", "PBM E-score": -0.216}, {"sequence": "AACGGGCC", "PBM E-score": 0.0603}, {"sequence": "CAGAGAGC", "PBM E-score": -0.206}, {"sequence": "ATTTACAG", "PBM E-score": -0.0857}, {"sequence": "AAGTGTCT", "PBM E-score": 0.0186}, {"sequence": "AAAGAGTC", "PBM E-score": -0.196}, {"sequence": "GCACCGCA", "PBM E-score": -0.074}, {"sequence": "ACAGATTC", "PBM E-score": -0.0433}, {"sequence": "AGGTGAAG", "PBM E-score": -0.178}, {"sequence": "TGTCGACA", "PBM E-score": -0.237}, {"sequence": "GTACATAA", "PBM E-score": -0.00711}, {"sequence": "ATCGGCAA", "PBM E-score": 0.366}, {"sequence": "ACTGCAGC", "PBM E-score": -0.077}, {"sequence": "ACCGCCAC", "PBM E-score": 0.0187}, {"sequence": "AAGGAATT", "PBM E-score": 0.0157}, {"sequence": "GCCGCCCC", "PBM E-score": 0.245}, {"sequence": "GATCAAGA", "PBM E-score": 0.0801}, {"sequence": "AATGAAAC", "PBM E-score": -0.0491}, {"sequence": "AACGCGGG", "PBM E-score": 0.329}, {"sequence": "CACCGAGG", "PBM E-score": 0.308}]}]}
